{
  "source": "patent US9192657B2",
  "about": "“Activated protein C variants with normal cytoprotective activity but reduced anticoagulant activity” (The Scripps Research Institute, dated 2015)",
  "binders": {"B1": {"name": "S360A-APC (enzyme)", "chain": "not shown"}, "B2": {"name": "RR229/230AA-APC (enzyme)", "chain": "not shown"}},
  "assay_in_all_cases": "cell-based or functional assay",
  "key": {"factor Va": {"target": "factor Va (human, UniProt P12259)"}, "[1]": {"target": "T1, endothelial protein C receptor (EPCR) on cells (Homo sapiens (Human), UniProt Q9UNN8)"}, "[2]": {"target": "T2, protease activated receptor-1 (PAR-1) (Homo sapiens (Human), UniProt P25116)"}, "[3]": {"target": "T1, endothelial protein C receptor (EPCR) …", "remark": "listed apart in the source"}, "[4]": {"target": "T2, protease activated receptor-1 (PAR-1)", "remark": "listed apart in the source"}, "[5]": {"target": "T1, endothelial protein C receptor (EPCR) …", "remark": "listed apart in the source"}, "[6]": {"target": "T2, protease activated receptor-1 (PAR-1)", "remark": "listed apart in the source"}},
  "data": [
    {"binder": "B1", "values": [
      {"measurement": "anticoagulant activity (% rwt-APC), APTT clotting assay in human plasma", "setting": "factor Va", "value": 23, "unit": "% rwt-APC"}
    ]},
    {"binder": "B2", "values": [
      {"measurement": "cytoprotective activity (% wt-APC)", "setting": "[1]", "value": 89, "unit": "% wt-APC"},
      {"measurement": "cytoprotective activity (% wt-APC)", "setting": "[2]", "value": 89, "unit": "% wt-APC"},
      {"measurement": "half-maximum inhibition of staurosporine-induced apoptosis (EA.hy926 cells, Apopercentage dye)", "setting": "[3]", "value": 0.17, "unit": "nM"},
      {"measurement": "half-maximum inhibition of staurosporine-induced apoptosis (Eahy926 cells, Apopercentage staining)", "setting": "[3]", "value": 0.27, "unit": "nM"},
      {"measurement": "reduction of activated caspase-3-positive endothelial cells after staurosporine", "setting": "[3]", "value": "~70", "unit": "%"},
      {"measurement": "half-maximum inhibition of staurosporine-induced apoptosis (EA.hy926 cells, Apopercentage dye)", "setting": "[4]", "value": 0.17, "unit": "nM"},
      {"measurement": "half-maximum inhibition of staurosporine-induced apoptosis (Eahy926 cells, Apopercentage staining)", "setting": "[4]", "value": 0.27, "unit": "nM"},
      {"measurement": "reduction of activated caspase-3-positive endothelial cells after staurosporine", "setting": "[4]", "value": "~70", "unit": "%"},
      {"measurement": "cytoprotective activity (% rwt-APC), from the concentrations for half-maximal inhibition of apoptosis", "setting": "[5]", "value": 94, "unit": "% rwt-APC"},
      {"measurement": "cytoprotective activity (% rwt-APC), from the concentrations for half-maximal inhibition of apoptosis", "setting": "[6]", "value": 94, "unit": "% rwt-APC"},
      {"measurement": "anticoagulant activity (% rwt-APC), APTT clotting assay in human plasma", "setting": "factor Va", "value": 13, "unit": "% rwt-APC"}
    ]}
  ]
}
